# Assay results reported in PubChem BioAssay AID1745853 (National Center for Advancing Translational Sciences (NCATS), 2022).
# The list shows a part of the results. The main result of the screen is listed elsewhere. These columns were measured beside it and carry no call.
# Legend:
# Assay in all cases: Primary Screen for Target Class Profiling of Small Molecule Inhibitors of Methyltransferases
# [1] = target: Glycine N-methyltransferase (Homo sapiens) (UniProt Q14749); conditions: purified enzyme, MTase-Glo SAH luminescence; measured here: GNMT inhibition; at 40 µM; stronger effect = lower value
# Method in brief: (§1)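 Each enzyme was assayed with SAM and its substrate. SAH formation detected by MTase-Glo luminescence; single-point 40 uM screen[…].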
# [2] = target: Guanidinoacetate N-methyltransferase (Homo sapiens) (UniProt Q14353); conditions: purified enzyme, MTase-Glo SAH luminescence; measured here: GAMT inhibition; at 40 µM; stronger effect = lower value
# Method in brief: as §1
# [3] = target: Histamine N-methyltransferase (Homo sapiens) (UniProt P50135); conditions: purified enzyme, MTase-Glo SAH luminescence; measured here: HNMT inhibition; at 40 µM; stronger effect = lower value
# Method in brief: as §1
# [4] = target: Nicotinamide N-methyltransferase (Homo sapiens) (UniProt P40261); conditions: purified enzyme, MTase-Glo SAH luminescence; measured here: NNMT inhibition; at 40 µM; stronger effect = lower value
# Method in brief: as §1
# [5] = target: Phenylethanolamine N-methyltransferase (Homo sapiens) (UniProt P11086); conditions: purified enzyme, MTase-Glo SAH luminescence; measured here: PNMT inhibition; at 40 µM; stronger effect = lower value
# Method in brief: as §1
# On the % scale 0 is the no-effect control and ±100 the full control effect.
Compound,"activity change, negative = inhibition [1]","activity change, negative = inhibition [2]","activity change, negative = inhibition [3]","activity change, negative = inhibition [4]","activity change, negative = inhibition [5]"
CCCN1C(=O)c2c(C(=O)NCc3ccc(OC(C)C)cc3)ncn2CC1(C)C(=O)NCc1ccc(F)cc1 (stereo not given),2.51%,0%,3.32%,4.45%,5.81%
CCOC(=O)C1CCCN(C(=O)C2CCc3nnc(C4CCN(C(C)=O)CC4)n32)C1 (stereo not given),-3.07%,-0.405%,0.062%,0.302%,1.97%
CCN1CCN(C(=O)C2CCc3ncc(-c4ccsc4)n3C2)CC1 (stereo not given),-2.81%,-1.85%,-4.72%,-6.86%,-2.27%
Brc1c(Br)c(Br)c2[nH]cnc2c1Br,-61.7%,-19.9%,-32.2%,-41.9%,-42.4%
O=c1cc(-c2ccncc2)oc2c(-c3cccc(CO)c3)nccc12,-25.9%,-9.33%,-26.9%,-16.5%,-23%
COC(=O)[C@H](NC(=O)[C@@H]1C[C@H](NC(=O)Nc2ccc(OC)cc2)CN1C(=O)c1cccn1C)C(C)C,3.15%,-3.13%,1.09%,-5.26%,14.6%
O=C(NCc1ccc(OC(F)(F)F)cc1)C1c2ccccc2C(=O)N1C1CCOCC1 (stereo not given),2.05%,-1.93%,9.41%,-14.9%,2.32%
Cc1ccc(CCNC(=O)Cn2c(=O)oc3cc(S(=O)(=O)NC4CCCC4)ccc32)cc1,-1.49%,2.85%,-0.925%,6.27%,-6.79%
Cc1cccc(N2C(=O)c3cc4sccc4n3CC2(C)C(=O)NC2CCCCC2)c1C (stereo not given),3.03%,0%,6.6%,10.3%,-0.139%
O=C(NC1CC1)c1nc(-c2ccc(F)cc2)c2cnccn12,-26.9%,-13.4%,-11.3%,-29.2%,-8.52%
CCOc1ccc(CNC(=O)Cn2ccc3cc(S(=O)(=O)N4CCC(C)CC4)ccc32)cc1,1.75%,1.96%,-0.324%,-4.77%,-2.61%
O=C(Cc1c[nH]c2ccccc12)NCCc1c[nH]c2ccc(Cl)cc12,-12.1%,1.24%,-11.2%,-8.34%,-9.4%
CC1(C(=O)NC2CCCC2)Cn2c(cc3ccccc32)C(=O)N1CCc1ccccc1 (stereo not given),-1.96%,4.03%,-5.76%,-6.67%,0.349%
CC(C)OCCCn1c(=O)c2ccccc2n2c(SCC(=O)Nc3cccc(Cl)c3)nnc12,-7.14%,4.42%,-1.56%,-8.09%,-2.81%
Cc1ccc(C)c(CN2CC(=O)N(Cc3cccc(F)c3)c3ccccc3S2(=O)=O)c1,-9.65%,-2.81%,-11.6%,-18.9%,-12.8%
Cc1ccc(NC(=O)Cn2nc3n(Cc4ccccc4)c(=O)c4ccccc4n3c2=O)cc1C,4.91%,0%,8.85%,2.04%,1.75%
OCc1ccc(CN2C[C@H](O)C[C@H]2c2nc(-c3ccc(F)cc3)no2)o1,-9%,-0.82%,-1.56%,3.04%,-1.54%
CCC1OC(=O)C(C)CC(C)C(=O)/C(C)=C/C(C)C(=O)/C=C/C1(C)O (stereo not given),0.104%,7.82%,8.77%,-5.97%,4.28%
CCc1ccc(NC(=O)Cn2nc3nc(Nc4ccc(C)cc4)ccn3c2=O)cc1,-1.35%,4.04%,-10.4%,-5.06%,-4.52%
CC1(C(=O)NC2CCCCC2)Cn2c(ccc2-c2ccccc2)C(=O)N1CCCc1ccccc1 (stereo not given),6.25%,0.815%,7.41%,12.3%,6.16%

Compound,"activity change, negative = inhibition [1]","activity change, negative = inhibition [2]","activity change, negative = inhibition [3]","activity change, negative = inhibition [4]","activity change, negative = inhibition [5]"
CCN1CCN(C(=O)C23CCC=C2N(C2CCCC2)C(=O)CC3)CC1 (stereo not given),-1.84%,-2.14%,1.47%,2.89%,1.81%
Cc1ccc([S+](=O)([O-])N2CCN(c3nc4ncccc4o3)CC2)cc1,-4.04%,-5.58%,-3.03%,-11.3%,-4.43%
C=CCn1c(=O)c2ccc(C(=O)NC(C)CC)cc2n2c(=O)[nH]nc12 (stereo not given),-1.26%,0.561%,6.41%,3.56%,-3.31%
COc1ccc(C2=N[C@@H](c3ccc(Cl)cc3)[C@@H](c3ccc(Cl)cc3)N2C(=O)N2CCNC(=O)C2)c(OC(C)C)c1,1.27%,8.52%,0.477%,-40.5%,-1.55%
Cc1ccc(C)c(NS(=O)(=O)c2cc3c(cc2Cl)n(C)c(=O)n3C)c1,11.7%,0.151%,-1.22%,4.89%,8.42%
CCc1ccccc1NC(=O)N1CCn2c(C)ccc2C1C(C)C (stereo not given),0.654%,4.77%,-10.3%,-7.45%,-4.12%
O=C(Nc1cccnn1)N1CCN(c2nccc(-c3ccc(F)c(F)c3)n2)CC1,-5.86%,-8.02%,-1.52%,-15%,-5.93%
O=C(CCCn1cncn1)NC1CC(c2cc(N3CCOCC3)ncn2)C1 (stereo not given),-5.01%,-3.95%,-3.28%,-11.4%,-5.82%
CSc1ccc(CCN2C(=O)c3ccc(-c4ccccc4)n3CC2(C)C(=O)NC2CCCC2)cc1 (stereo not given),5.74%,5.32%,9.04%,5.52%,4.54%
CS(=O)(=O)N[C@H]1CCN2C(=O)c3cc(-c4cccc(C(F)(F)F)c4)ccc3NC(=O)[C@@H]2C1,-5.51%,0.92%,-2.98%,-3.06%,4.94%
CCCn1c(=O)c2cc(F)ccc2n2c(SCC(=O)Nc3cccc(Cl)c3)nnc12,1.83%,0.474%,11.5%,-0.104%,7.28%
Cc1ccc2c(c1)c(C(=O)N[C@H](c1cnn(C)c1)C1CC(O)C1)nn2C (stereo not given in full),-1.33%,-0.032%,3.04%,-4.88%,-3.35%
O=C(N[C@@H]1CN(C(=O)Cn2c(=O)oc3ccccc32)CC[C@@H]1CO)c1ccccc1,-4.76%,-11.8%,-3.28%,-15.5%,-7.06%
CC(C)CC(=O)n1cc(C(N)=O)c(=O)cc1C(O)c1ccccc1 (stereo not given),1.27%,3.12%,8.06%,-8.95%,-2.58%
CCCn1c(=O)c2ccc(C(=O)NCC(C)C)cc2n2c(=O)n(CC(=O)c3cc(C)ccc3C)nc12,5.51%,0.919%,10%,1.09%,4.22%
COC(=O)[C@@H]1CN(C(=O)Nc2ccccc2)CCN1C(C)=O,-6.71%,-14.4%,-4.03%,-7.38%,-3.33%
COc1ccc(-c2cc3n(n2)CC(C)(C(=O)NCc2ccccc2OC)N(c2ccccc2C)C3=O)cc1 (stereo not given),1.56%,4.38%,0.639%,-0.401%,-10.4%
Cc1ccc(Cn2nc3n(CCCOC(C)C)c(=O)c4ccccc4n3c2=O)cc1,-6.22%,-0.509%,3.49%,-18.8%,-4.17%
CC1CCN=C(N)S1 (stereo not given),8.35%,1.12%,-35.8%,-20.5%,-2.5%
